Consider 1 compound from PMC8770593 (Nature Communications, 2022).

Residue numbers refer to the chain shown, from its start.

Common to all, as to assay: HTRF ligand-binding assay on whole transfected HEK293T/17 cells (QAPB saturation; competition with QAPB tracer)
A general note: TR-FRET usually uses a lanthanide donor and a delayed reading to cut background.

One experiment addresses T1, wild-type α2CAR (Homo sapiens, UniProt P18825).
T1 sequence (P18825 37-462 limits assumed): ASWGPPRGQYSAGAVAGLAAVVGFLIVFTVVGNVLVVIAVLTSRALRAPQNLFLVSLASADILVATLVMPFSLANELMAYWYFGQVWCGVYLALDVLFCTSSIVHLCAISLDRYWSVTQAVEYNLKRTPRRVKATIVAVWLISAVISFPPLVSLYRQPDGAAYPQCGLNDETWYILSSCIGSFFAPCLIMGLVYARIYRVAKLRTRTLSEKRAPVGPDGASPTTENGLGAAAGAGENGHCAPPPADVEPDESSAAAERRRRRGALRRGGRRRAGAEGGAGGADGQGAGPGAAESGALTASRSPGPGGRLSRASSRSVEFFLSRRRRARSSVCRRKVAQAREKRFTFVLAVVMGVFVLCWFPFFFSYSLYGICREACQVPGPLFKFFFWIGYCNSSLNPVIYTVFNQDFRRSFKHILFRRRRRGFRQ
Particulars: saturation binding of QAPB.

A further experiment deals with T2, wild-type α1BAR (Homo sapiens, UniProt P35368).
T2 sequence (P35368 35-520 limits assumed): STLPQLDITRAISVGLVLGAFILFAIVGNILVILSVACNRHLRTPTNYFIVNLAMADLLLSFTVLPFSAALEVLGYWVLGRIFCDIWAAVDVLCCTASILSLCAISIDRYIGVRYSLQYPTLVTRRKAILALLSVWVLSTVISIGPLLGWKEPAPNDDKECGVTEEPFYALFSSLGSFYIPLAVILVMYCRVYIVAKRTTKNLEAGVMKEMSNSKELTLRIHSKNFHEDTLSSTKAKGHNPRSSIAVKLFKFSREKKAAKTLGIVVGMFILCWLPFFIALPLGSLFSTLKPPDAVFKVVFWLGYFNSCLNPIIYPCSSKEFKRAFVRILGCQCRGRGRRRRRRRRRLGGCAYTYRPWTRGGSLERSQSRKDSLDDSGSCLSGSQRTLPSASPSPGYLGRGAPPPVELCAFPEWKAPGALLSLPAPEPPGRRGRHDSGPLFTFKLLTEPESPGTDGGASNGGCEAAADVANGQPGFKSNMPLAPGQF

For experiment [1], the target named is T3, α1BAR-α2C(L^45.52) chimera (V197^45.52→L) (Homo sapiens, UniProt P35368, V197L).
T3 sequence (P35368 35-520 V197L): T2 sequence (P35368 35-520 limits assumed) with V163L

The target of another experiment is T4, α1BAR-α2C(YLLY) chimera (Homo sapiens, UniProt P35368, A122L/L314Y/V197L/W121Y).
T4 sequence (P35368 35-520 W121Y/A122L/V197L/L314Y): T2 sequence (P35368 35-520 limits assumed) with W87Y, A88L, V163L, L280Y

Experiment [2] deals with T5, α1BAR-α2C(YLLY;ECL2) chimera (Homo sapiens, UniProt P35368, A122L/DEL188-193/E186Y/E194Q/E199D/F202W/G179P/I178F/INS181VSLYRQP/K185A/L182D/L314Y/P201T/T198N/V197L/W121Y/W184A).
T5 sequence (P35368 with tags, fused parts or gaps W121Y/A122L/I178F/G179P/INS181VSLYRQP/L182D/W184A/K185A/E186Y/DEL188-193/E194Q/V197L/T198N/E199D/P201T/F202W/L314Y): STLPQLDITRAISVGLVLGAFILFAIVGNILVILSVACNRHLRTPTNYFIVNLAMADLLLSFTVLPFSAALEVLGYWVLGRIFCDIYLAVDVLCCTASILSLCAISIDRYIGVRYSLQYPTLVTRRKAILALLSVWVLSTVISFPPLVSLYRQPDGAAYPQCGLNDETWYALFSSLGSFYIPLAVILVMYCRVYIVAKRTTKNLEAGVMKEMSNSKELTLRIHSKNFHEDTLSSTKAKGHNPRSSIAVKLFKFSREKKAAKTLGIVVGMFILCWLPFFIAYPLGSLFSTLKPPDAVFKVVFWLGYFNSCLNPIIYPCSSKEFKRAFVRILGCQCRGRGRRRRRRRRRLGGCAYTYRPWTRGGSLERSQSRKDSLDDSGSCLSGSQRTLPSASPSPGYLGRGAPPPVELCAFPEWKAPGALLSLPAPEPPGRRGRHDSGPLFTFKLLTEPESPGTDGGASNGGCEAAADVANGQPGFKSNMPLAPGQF
The settings on record: saturation binding of QAPB.

Experiment [3] deals with T6, α1BAR-α2C(YLLY;N^2.64) chimera (Homo sapiens, UniProt P35368, A122L/L105N/L314Y/V197L/W121Y).
T6 sequence (P35368 35-520 L105N/W121Y/A122L/V197L/L314Y): T2 sequence (P35368 35-520 limits assumed) with L71N, W87Y, A88L, V163L, L280Y
Particulars: saturation binding of QAPB.

Where [4] appears, read: saturation binding of QAPB, whole cells.

Take `COc1cc2nc(N3CCN(C(=O)CCC4=[N+]5C(=Cc6c(C)cc(C)n6[B-]5(F)F)C=C4)CC3)nc(N)c2cc1OC` [QAPB]: the “pKD (saturation binding)” value on wild-type α2CAR worked out at 6.86 ± 0.035; at wild-type α1BAR (setting [4]), 8.11 ± 0.050; in experiment [1] (setting [4]), 7.95 ± 0.016; on α1BAR-α2C(YLLY) chimera (setting [4]), 6.10 ± 0.100; in experiment [2] it was 6.16 ± 0.150; in experiment [3], 6.06 ± 0.088. In addition, the “higher affinity for wild-type α1BAR compared to α2CAR” value at wild-type α1BAR (ratio of affinities α1BAR vs α2CAR) is on record as ~ 20 fold. The “effect of the substitution on affinity” value in experiment [1] (V197^45.52→L vs wild-type α1BAR) is given as “negligible”. In addition, the “weaker affinity compared to wild-type α1BAR” value on α1BAR-α2C(YLLY) chimera (α1BAR-α2C(YLLY) vs wild-type α1BAR) is recorded as ~ 100 fold.
